# Reference: the supplement of paper PMC8728848
# The list shows a part of the results.
# B1: Epa22 (Candida glabrata) (protein)
# chain: MGSSHHHHHHSSGLVPRGSHMKRALSSQNPFGYPIGCSPQSTNVIPGLTMELYSYPIVSGTPPNCYDASYVDPEYPRTGYLKRKMIGKSTGVTGSLNYKFSVEKACMVKYGNLPAGYNYNEPLTVSNFTMLLYGYFKPQTSGIHTFFVNADDLLYINFGAGNAFDCCKREDSKFKLGEYVAYDIWHVDSSKNKVSLNLEKDVYYPIRMFFNNIGKDSSLDLSFSVNGAVEHITDFSGYLYSVPDQPDACPAPIGYDTTCK
# Assays:
# Assay in all cases: glycan array binding signal (z-score within array); higher = stronger binding
# Settings in all cases: glycan notation: IUPAC condensed, linker removed
# [1] = target: Neu5Ac(a2-6)Gal(b1-3)GlcNAc(b1-3)[Gal(b1-4)GlcNAc(b1-6)]Gal(b1-4)Glc
# Outline: (§1)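 The Consortium for Functional Glycomics database supplied 3228 glycan arrays, of which those lacking an available protein sequence were dropped. The binding signal, a within-array Z-score, was averaged across arrays of the same protein sequence and across linkers. Negative scores can be read as non-binding.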
# [2] = target: Neu5Ac(a2-6)Gal(b1-4)Glc
# Outline: as §1
# [3] = target: Neu5Ac(a2-6)Gal(b1-4)GlcNAc
# Outline: as §1
# [4] = target: Neu5Ac(a2-6)Gal(b1-4)GlcNAc(b1-2)Man
# Outline: as §1
# [5] = target: Neu5Ac(a2-6)Gal(b1-4)GlcNAc(b1-2)Man(a1-3)Man(b1-4)GlcNAc(b1-4)GlcNAc
# Outline: as §1
# [6] = target: Neu5Ac(a2-6)Gal(b1-4)GlcNAc(b1-2)Man(a1-3)[Gal(b1-4)GlcNAc(b1-2)Man(a1-6)]Man(b1-4)GlcNAc(b1-4)GlcNAc
# Outline: as §1
# [7] = target: Neu5Ac(a2-6)Gal(b1-4)GlcNAc(b1-2)Man(a1-3)[GlcNAc(b1-4)][Neu5Ac(a2-6)Gal(b1-4)GlcNAc(b1-2)Man(a1-6)]Man(b1-4)GlcNAc(b1-4)GlcNAc
# Outline: as §1
# [8] = target: Neu5Ac(a2-6)Gal(b1-4)GlcNAc(b1-2)Man(a1-3)[Man(a1-6)]Man(b1-4)GlcNAc(b1-4)GlcNAc
# Outline: as §1
# [9] = target: Neu5Ac(a2-6)Gal(b1-4)GlcNAc(b1-2)Man(a1-3)[Neu5Ac(a2-3)Gal(b1-4)GlcNAc(b1-2)Man(a1-6)]Man(b1-4)GlcNAc(b1-4)GlcNAc
# Outline: as §1
# [10] = target: Neu5Ac(a2-6)Gal(b1-4)GlcNAc(b1-2)Man(a1-3)[Neu5Ac(a2-6)Gal(b1-4)GlcNAc(b1-2)Man(a1-6)]Man(b1-4)GlcNAc(b1-4)GlcNAc
# Outline: as §1
# [11] = target: Neu5Ac(a2-6)Gal(b1-4)GlcNAc(b1-2)Man(a1-3)[Neu5Ac(a2-6)Gal(b1-4)GlcNAc(b1-2)Man(a1-6)]Man(b1-4)GlcNAc(b1-4)[Fuc(a1-6)]GlcNAc
# Outline: as §1
# [12] = target: Neu5Ac(a2-6)Gal(b1-4)GlcNAc(b1-2)Man(a1-6)Man(b1-4)GlcNAc(b1-4)GlcNAc
# Outline: as §1
# [13] = target: Neu5Ac(a2-6)Gal(b1-4)GlcNAc(b1-2)Man(a1-6)[Gal(b1-4)GlcNAc(b1-2)Man(a1-3)]Man(b1-4)GlcNAc(b1-4)GlcNAc
# Outline: as §1
# [14] = target: Neu5Ac(a2-6)Gal(b1-4)GlcNAc(b1-2)Man(a1-6)[GlcNAc(b1-2)Man(a1-3)]Man(b1-4)GlcNAc(b1-4)GlcNAc
# Outline: as §1
# [15] = target: Neu5Ac(a2-6)Gal(b1-4)GlcNAc(b1-2)Man(a1-6)[Man(a1-3)]Man(b1-4)GlcNAc(b1-4)GlcNAc
# Outline: as §1
# [16] = target: Neu5Ac(a2-6)Gal(b1-4)GlcNAc(b1-2)[Neu5Ac(a2-6)Gal(b1-4)GlcNAc(b1-4)]Man(a1-3)[GlcNAc(b1-4)][Neu5Ac(a2-6)Gal(b1-4)GlcNAc(b1-2)[Neu5Ac(a2-6)Gal(b1-4)GlcNAc(b1-6)]Man(a1-6)]Man(b1-4)GlcNAc(b1-4)GlcNAc
# Outline: as §1
# [17] = target: Neu5Ac(a2-6)Gal(b1-4)GlcNAc(b1-2)[Neu5Ac(a2-6)Gal(b1-4)GlcNAc(b1-4)]Man(a1-3)[GlcNAc(b1-4)][Neu5Ac(a2-6)Gal(b1-4)GlcNAc(b1-4)Man(a1-6)]Man(b1-4)GlcNAc(b1-4)GlcNAc
# Outline: as §1
# [18] = target: Neu5Ac(a2-6)Gal(b1-4)GlcNAc(b1-2)[Neu5Ac(a2-6)Gal(b1-4)GlcNAc(b1-6)]Man(a1-6)[Neu5Ac(a2-6)Gal(b1-4)GlcNAc(b1-2)Man(a1-3)][GlcNAc(b1-4)]Man(b1-4)GlcNAc(b1-4)GlcNAc
# Outline: as §1
# [19] = target: Neu5Ac(a2-6)Gal(b1-4)GlcNAc(b1-3)Gal(b1-3)GlcNAc
# Outline: as §1
# [20] = target: Neu5Ac(a2-6)Gal(b1-4)GlcNAc(b1-3)Gal(b1-4)GlcNAc
# Outline: as §1
# [21] = target: Neu5Ac(a2-6)Gal(b1-4)GlcNAc(b1-3)Gal(b1-4)GlcNAc(b1-2)Man(a1-3)[Neu5Ac(a2-6)Gal(b1-4)GlcNAc(b1-3)Gal(b1-4)GlcNAc(b1-2)Man(a1-6)]GalNAc
# Outline: as §1
# [22] = target: Neu5Ac(a2-6)Gal(b1-4)GlcNAc(b1-3)Gal(b1-4)GlcNAc(b1-3)Gal(b1-4)GlcNAc
# Outline: as §1
# [23] = target: Neu5Ac(a2-6)Gal(b1-4)GlcNAc(b1-3)Gal(b1-4)GlcNAc(b1-3)Gal(b1-4)GlcNAc(b1-2)Man(a1-3)[Neu5Ac(a2-6)Gal(b1-4)GlcNAc(b1-3)Gal(b1-4)GlcNAc(b1-3)Gal(b1-4)GlcNAc(b1-2)Man(a1-6)]GalNAc
# Outline: as §1
# [24] = target: Neu5Ac(a2-6)Gal(b1-4)GlcNAc(b1-3)Gal(b1-4)GlcNAc(b1-3)GalNAc
# Outline: as §1
# [25] = target: Neu5Ac(a2-6)Gal(b1-4)GlcNAc(b1-3)Gal(b1-4)GlcNAc(b1-3)[Neu5Ac(a2-6)Gal(b1-4)GlcNAc(b1-3)Gal(b1-4)GlcNAc(b1-6)]GalNAc
# Outline: as §1
# [26] = target: Neu5Ac(a2-6)Gal(b1-4)GlcNAc(b1-3)Gal(b1-4)GlcNAc(b1-6)[Gal(b1-3)]GalNAc
# Outline: as §1
# [27] = target: Neu5Ac(a2-6)Gal(b1-4)GlcNAc(b1-3)Gal(b1-4)[Fuc(a1-3)]GlcNAc(b1-3)Gal(b1-4)[Fuc(a1-3)]GlcNAc
# Outline: as §1
# [28] = target: Neu5Ac(a2-6)Gal(b1-4)GlcNAc(b1-3)GalNAc
# Outline: as §1
# [29] = target: Neu5Ac(a2-6)Gal(b1-4)GlcNAc(b1-3)[Neu5Ac(a2-6)Gal(b1-4)GlcNAc(b1-6)]GalNAc
# Outline: as §1
# [30] = target: Neu5Ac(a2-6)Gal(b1-4)GlcNAc(b1-6)GalNAc
# Outline: as §1
# [31] = target: Neu5Ac(a2-6)Gal(b1-4)GlcNAc(b1-6)[Gal(b1-3)GlcNAc(b1-3)]Gal(b1-4)Glc
# Outline: as §1
# [32] = target: Neu5Ac(a2-6)Gal(b1-4)GlcNAc(b1-6)[Gal(b1-3)]GalNAc
# Outline: as §1
# [33] = target: Neu5Ac(a2-6)Gal(b1-4)GlcNAc6S
# Outline: as §1
# [34] = target: Neu5Ac(a2-6)GalNAc
# Outline: as §1
# [35] = target: Neu5Ac(a2-6)GalNAc(b1-4)GlcNAc
# Outline: as §1
# [36] = target: Neu5Ac(a2-6)GalNAc(b1-4)GlcNAc6S
# Outline: as §1
# [37] = target: Neu5Ac(a2-6)GlcNAc(b1-4)GlcNAc
# Outline: as §1
# [38] = target: Neu5Ac(a2-6)GlcNAc(b1-4)GlcNAc(b1-4)GlcNAc
# Outline: as §1
binder,measurement,setting,value
B1,glycan array binding signal (z-score),[1],-0.225
same,glycan array binding signal (z-score),[2],0.063
same,glycan array binding signal (z-score),[3],-0.155
same,glycan array binding signal (z-score),[4],-0.271
same,glycan array binding signal (z-score),[5],-0.251
same,glycan array binding signal (z-score),[6],-0.412
same,glycan array binding signal (z-score),[7],-0.397
same,glycan array binding signal (z-score),[8],-0.346
same,glycan array binding signal (z-score),[9],-0.328
same,glycan array binding signal (z-score),[10],-0.37
same,glycan array binding signal (z-score),[11],-0.359
same,glycan array binding signal (z-score),[12],-0.426
same,glycan array binding signal (z-score),[13],-0.38
same,glycan array binding signal (z-score),[14],-0.338
same,glycan array binding signal (z-score),[15],-0.396
same,glycan array binding signal (z-score),[16],-0.37
same,glycan array binding signal (z-score),[17],-0.386
same,glycan array binding signal (z-score),[18],-0.404
same,glycan array binding signal (z-score),[19],-0.39
same,glycan array binding signal (z-score),[20],-0.293
same,glycan array binding signal (z-score),[21],-0.345
same,glycan array binding signal (z-score),[22],-0.398
same,glycan array binding signal (z-score),[23],-0.143
same,glycan array binding signal (z-score),[24],-0.322
same,glycan array binding signal (z-score),[25],-0.304
same,glycan array binding signal (z-score),[26],-0.114
same,glycan array binding signal (z-score),[27],-0.356
same,glycan array binding signal (z-score),[28],-0.308
same,glycan array binding signal (z-score),[29],-0.246
same,glycan array binding signal (z-score),[30],-0.347
same,glycan array binding signal (z-score),[31],-0.175
same,glycan array binding signal (z-score),[32],0.338
same,glycan array binding signal (z-score),[33],0.45
same,glycan array binding signal (z-score),[34],-0.41
same,glycan array binding signal (z-score),[35],-0.397
same,glycan array binding signal (z-score),[36],-0.331
same,glycan array binding signal (z-score),[37],-0.329
same,glycan array binding signal (z-score),[38],-0.37
